Measurements taken from the supplement of paper PMC10126150.
Values marked as one replicate rest on one cluster of the flow cell; about a third of the high ones do not repeat.

Test system: ATP
Assay: switch fluorescence ratio, 500 uM ATP over buffer (Cy3 cluster intensity, sum of 5 cycles each) (fold (ratio)); higher = stronger signal-on switching upon ATP binding; sequences stand for … in TCGTCGGCAGCGTCAGATGTGTATAAGAGACAGTTTTTTTTTTTTTTTTTTTTTTTTT…TC
Conditions: aptamer strand: ATP DNA aptamer (quencher-CACCTGGGGGAGTATTGCGGAGGAAGG + anchor), 100 nM annealed; ATP concentration: 500 uM; one replicate
Procedure, shortened: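 Per cluster, summed Cy3 intensity from the target cycles was divided by that from the buffer cycles to give the fluorescence ratio, then averaged per switch-domain sequence. Clusters outside 100-1000 RFU were excluded. The Cy3-labelled switching-strand clusters, on a modified Illumina MiSeq flow-cell, were annealed to 100 nM quencher-labelled ATP aptamer and imaged in selection buffer, then after 15 min with 500 uM ATP at 22 °C, for five cycles with NaOH stripping and re-annealing between them.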
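Note: ATP exposure 15 min at 22 °C before imaging.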

Sequence	switch fluorescence ratio
ACCAAGGGTC	0.961
GAGCTCGACC	0.998
GATCCACTTC	1.05
AGACTCCTGT	1.01
AAATAGTAGA	1
ACTGGCCCCT	1.01
TTCGATTA	0.992
GCTTAGTGCG	0.949
AGCCCAGCGG	1.09
TCTAATTTTT	0.999
TGCCTACACT	1.03
CATTGACGGG	0.998
AGGGGATCGT	0.954
CGAATTCCCA	1.01
CAAGAGTATA	0.96
TTCCTACTTT	1.01
AAAGCCAGGA	1.08
GTTCTTGTGC	0.954
TAGGCATTCA	1.01
ACTAAGTCGT	1.03
GCAACAGCA	1.28
CAGTTAATCT	1.05
ATCACGGCGA	1.03
GTTGTTAGTT	0.975
CGGGAGATTT	0.986

Sequence	switch fluorescence ratio
AACTGTTTGG	0.995
CATGGTCTGG	0.994
ATACCCTTGG	0.982
GCCTCAAGTG	1.03
CTCTTTAGCA	1.22
ATGTGATCCT	1.04
GGGGCCGGTT	0.99
CCTCAAGTA	2.23
CAGACATTTG	1.01
GCTTGTGCGC	1.05
GGGGAGCCGA	1.02
TATGCCCAGG	3.55
AGTCAACCG	1.04
GGGTGGGAGC	1.02
AATCTACTGC	1.03
GGTATCTTAA	0.979
TCCAGATACC	1
GAATCGCACG	1.07
GCTTACTAA	1.07
CGGCAGTCTT	1
ATTTTTTCGG	0.959
CTGGACGCT	1.11
GGTTTTACAA	0.999
ACATGGCGGA	1.02
GAGAGGGAGT	1.04

Sequence	switch fluorescence ratio
TCCAGGTGAA	5.03
ACGTTGTGTG	1
GACCTTTTTG	0.989
TAACGCTTGC	1.16
TGAAAACGTT	1.02
TAAATATT	0.983
TAGGTTCAAG	1.01
GGACCCGGTG	1
ATCGAACTT	1
AGTGGACGGT	0.969
GCCAGCGTCT	1.07
CGGGACCGGT	0.98
AAGGGTCCCC	1.03
GATTATACCG	0.996
TTGGACCACG	0.988
AGGACAAGCG	1.17
GGGCGATTGG	0.974
GTAACAGGAG	1.02
GCCGTAGGCA	0.984
GGAAAACGCG	1.02
CGAAAAAAG	0.997
CTATCTGGGG	0.947
AGTTTCGTAA	1.03
AAACCCTTGG	1.05
TTTAGCCAGA	0.955

Sequence	switch fluorescence ratio
GCGTAACTAG	1.06
TCAACATGTC	1.03
AACTGTCAGT	1.02
CCAGAAGAAA	1.04
TGGTCTTTAC	1.02
GTCAACAGGA	0.998
TTTAGCGCGT	1.01
CTCTTTGCTA	1.1
GATGTGGAAT	1.36
CCACGTCAGT	1.05
ATAAACAAGG	1.02
TTGGCTACCT	1.13
GGGGCCACGT	1
TCAAGACAGC	0.975
GGGGTAGCAA	1.02
ACTGGTACCG	1.06
AGGTAGAGGC	1.02
CAAGTTGGAT	0.996
GGCTAAAAT	1.01
GCTCTTGGCT	0.995
CTCGGCCAAA	1.37
TCTAGCTTGC	1.05
TATGATGGAT	1.04
ATATCATGGA	1.01
TCGCCTAGGG	1.03

Sequence	switch fluorescence ratio
GATAATGTGC	0.974
CCTGTCATAG	1.14
TTAAGCAAAG	1.02
GATTCAAACT	0.994
AGCTGTCAGT	0.997
TCAAGTGCGC	0.934
CTAGCTCTCG	0.961
GCGCCCTCCC	2.41
GTATATCGAT	1.01
TACGGGAAAA	1.06
TTCCAATTTA	1.03
AAATGAGAG	1
AGAATGCTGT	0.938
TGATCGTCAG	0.99
ATTGATTTCG	1.01
TGACAGTCAC	1.09
ATCCACTCTC	1.03
GGGACGCTTA	1.05
GATTTTGCGT	0.974
GTGAGATTCG	0.916
TCACAGCGCG	1.01
TTCAGAAGAT	0.992
CCCGTGGCGT	1.07
GGTAGATGCC	1
TCCCCGATAA	1.64

Sequence	switch fluorescence ratio
ACTCGAAACG	1.01
CGCCCTGGTC	1.39
AATACTAGTA	0.992
CGTAATAACT	1.37
GGATAAGACA	1
AATTTGAGTA	0.962
GGCTTTATCC	1.02
GGAGCCTATG	1.02
TCTGGAATCC	2.38
TCATAAATAG	1
TCTGAGACTG	1.03
CACATTAATA	1.07
TTAGATCAG	1.02
TTATATGTAC	1.1
TGGCAATAGG	1.25
CAAACCTTGC	2.97
TTCAGTCGGC	0.967
CGAGGGCGTT	1
ATGGCTGAAG	1.01
TGCATCAATT	1
TATCTCATAA	0.991
ACCTTCTCA	1.19
GGATGAATGA	0.99
GGCCTGTTGC	0.994
GGGGGTGTTA	1.01

Sequence	switch fluorescence ratio
TCAGGCACT	1.02
GCAAGTATAT	0.974
GGTCGCGGTT	0.987
GAAGGTTTTT	1.01
GTTGCTTGTG	0.993
TCGTGTATAA	0.97
CAGTGTAGCA	1
TTGGACGTGG	0.999
CAATTACTCG	1.1
GCATACACAT	1.05
GCAATTCTCA	5.25
AGCTACTCAC	2.22
ACTGACCTGT	1.1
AAGTAATTAT	1.03
GTGTTGACTG	0.805
TCAAAGTCCG	0.998
CCGTAAGGAT	2.12
CTCTTTCCTG	1.02
GCCGCAAGTT	2.78
TTTCTAGTAA	0.988
ATTTGGCATG	1
ACAGGGTAAG	1.01
GGGCAAGCTC	1.26
ACTTAGGGCT	1.01
TCATGTACCT	1.29

Sequence	switch fluorescence ratio
GAGCCACCCA	0.998
TGTTCTCCTC	1.05
AAAGCGGGG	0.988
TGGCCAATTC	1.01
GGAGAGTTGG	0.988
TCTGGTGTTA	1
AAAGGGTAGG	0.991
CTCACCTCAC	1.44
GAGCCGGTTT	0.982
CATATGCATG	1.06
GCAGGGAGC	1.04
AAATGAGAGC	0.931
AAAACTGCT	0.96
GACGCTGTGG	1.16
TGCTCCGACG	1.85
GTTCAGACCA	1
AGCGGAGGTC	0.958
AAAGAGCTGG	1.01
CCATTTAGCC	0.972
CAGAGGAACC	1.02
GCCCTCGGCA	0.981
CTATGAGGGA	0.976
CAAAATCGAG	1.02
AGTTGGATCG	1.01
AGTTTTCATA	0.973
